{"source": "the supplement of paper PMC10723795", "tested_on": "RPE1", "assay": "nucleolar normality score relative to DMSO (fraction of DMSO control); RPE1 is a non-cancer human cell line; higher = more normal nucleoli (less nucleolar stress)", "conditions": "24 h", "note": "Where a name gives a salt, the structure may show the parent alone. The list shows a part of the results.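 The calls were made as follows: active = more than 2 SD below the DMSO mean: under 0.85 at 10 µM or 0.885 at 1 µM; inactive = the rest.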 Many values rest on one well or one pass, so single values are uncertain.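 Also: fixed cells immunolabelled for nucleolin and UBF, 40 image fields per well in 384-well plates, per-cell score = nucleolin nucleolar/nucleoplasm intensity ratio divided by the matching UBF ratio.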", "data": [{"compound": "COC(=O)c1ccc([C@H]2c3[nH]c4ccccc4c3C[C@H](C(=O)OC)N2C(=O)CCl)cc1", "values": [{"measurement": "nucleolar normality score", "setting": "1 µM", "result": "inactive: 0.989"}, {"measurement": "nucleolar normality score", "setting": "10 µM", "result": "inactive: 0.995"}]}, {"compound": "Cc1ncc(Cl)cc1NCc1ccc(C(=O)N[C@@H](CC2CCCC2)C(=O)NC2CC2)s1", "values": [{"measurement": "nucleolar normality score", "setting": "1 µM", "result": "inactive: 1.01"}, {"measurement": "nucleolar normality score", "setting": "10 µM", "result": "inactive: 1.04"}]}, {"compound": "Oc1c(F)cc(-c2cnccc2-c2ccc(N3CCOCC3)cc2)cc1F", "values": [{"measurement": "nucleolar normality score", "setting": "1 µM", "result": "inactive: 1"}, {"measurement": "nucleolar normality score", "setting": "10 µM", "result": "inactive: 1.03"}]}, {"compound": "CCCCCCCCCCCCc1ccc(S(=O)(=O)Nc2nncs2)cc1", "values": [{"measurement": "nucleolar normality score", "setting": "1 µM", "result": "inactive: 1.07"}, {"measurement": "nucleolar normality score", "setting": "10 µM", "result": "inactive: 1.07"}]}, {"compound": "CN(C)CC#Cc1ccc(OCCCc2sc(N3CCc4cccc(C(=O)Nc5nc6ccccc6s5)c4C3)nc2C(=O)O)c(F)c1", "values": [{"measurement": "nucleolar normality score", "setting": "1 µM", "result": "inactive: 1.07"}, {"measurement": "nucleolar normality score", "setting": "10 µM", "result": "inactive: 1.03"}]}, {"compound": "CNCCN(C)Cc1c[nH]nc1-c1ccc(O[C@H]2C[C@H](OCCC3CCOCC3)C2)cc1", "values": [{"measurement": "nucleolar normality score", "setting": "1 µM", "result": "inactive: 1.03"}, {"measurement": "nucleolar normality score", "setting": "10 µM", "result": "inactive: 1.05"}]}, {"compound": "COC1CCN(C(=O)c2cc(Cc3n[nH]c(=O)c4ccccc34)ccc2F)CC1", "values": [{"measurement": "nucleolar normality score", "setting": "1 µM", "result": "inactive: 1"}, {"measurement": "nucleolar normality score", "setting": "10 µM", "result": "inactive: 0.867"}]}, {"compound": "Nc1ccn([C@@H]2O[C@H](CO)[C@@H](O)[C@@H]2O)c(=O)n1", "note": "[Cytarabine]", "values": [{"measurement": "nucleolar normality score", "setting": "1 µM", "result": "inactive: 1.03"}, {"measurement": "nucleolar normality score", "setting": "10 µM", "result": "inactive: 1.05"}]}, {"compound": "Cc1cc(C)c(S(=O)(=O)n2cc(C)cc2C)c(C)c1", "values": [{"measurement": "nucleolar normality score", "setting": "1 µM", "result": "inactive: 1"}, {"measurement": "nucleolar normality score", "setting": "10 µM", "result": "inactive: 1.06"}]}, {"compound": "C=CC(=O)Nc1ccc(CN2C(=O)N(c3cc(OC)cc(OC)c3)Cc3cnc(Nc4ccc(N5CCN(C)CC5)cc4)nc32)cc1", "values": [{"measurement": "nucleolar normality score", "setting": "1 µM", "result": "inactive: 0.937"}, {"measurement": "nucleolar normality score", "setting": "10 µM", "result": "inactive: 0.992"}]}, {"compound": "Nc1ccc(C(=O)Nc2cccc(-c3nc(N4CCOCC4)c4oc5ncccc5c4n3)c2)cn1", "values": [{"measurement": "nucleolar normality score", "setting": "1 µM", "result": "inactive: 1.06"}, {"measurement": "nucleolar normality score", "setting": "10 µM", "result": "inactive: 1.11"}]}, {"compound": "C[C@H](Nc1ncnc2[nH]cnc12)c1cc2ccc(F)cc2nc1-c1ccccn1", "values": [{"measurement": "nucleolar normality score", "setting": "1 µM", "result": "inactive: 0.996"}, {"measurement": "nucleolar normality score", "setting": "10 µM", "result": "inactive: 1.01"}]}, {"compound": "Cc1nc(-c2cccnc2)sc1C(=O)Nc1ccccc1-c1cn2c(CN3CCOCC3)csc2n1", "values": [{"measurement": "nucleolar normality score", "setting": "1 µM", "result": "inactive: 1.03"}, {"measurement": "nucleolar normality score", "setting": "10 µM", "result": "inactive: 1.09"}]}, {"compound": "COc1cc([C@@H]2c3cc4c(cc3[C@@H](O[C@@H]3O[C@@H]5CO[C@@H](c6cccs6)O[C@H]5[C@H](O)[C@H]3O)[C@H]3COC(=O)[C@H]23)OCO4)cc(OC)c1O", "note": "[Teniposide]", "values": [{"measurement": "nucleolar normality score", "setting": "1 µM", "result": "active: 0.839"}, {"measurement": "nucleolar normality score", "setting": "10 µM", "result": "inactive: 0.948"}]}, {"compound": "CC(C)c1ccc2c(c1)c(SC(C)(C)C)c(CC(C)(C)C(=O)O)n2Cc1ccc(Cl)cc1", "values": [{"measurement": "nucleolar normality score", "setting": "1 µM", "result": "inactive: 0.995"}, {"measurement": "nucleolar normality score", "setting": "10 µM", "result": "inactive: 0.997"}]}, {"compound": "Cc1nc(Nc2ncc(C(=O)Nc3c(C)cccc3Cl)s2)cc(N2CCN(CCO)CC2)n1", "note": "[Dasatinib hydrochloride]", "values": [{"measurement": "nucleolar normality score", "setting": "1 µM", "result": "active: 0.821"}, {"measurement": "nucleolar normality score", "setting": "10 µM", "result": "active: 0.722"}]}, {"compound": "Cc1nc(Nc2ncc(C(=O)Nc3c(C)cccc3Cl)s2)cc(N2CCN(CCO)CC2)n1", "note": "[Dasatinib]", "values": [{"measurement": "nucleolar normality score", "setting": "1 µM", "result": "active: 0.763"}, {"measurement": "nucleolar normality score", "setting": "10 µM", "result": "active: 0.637"}]}, {"compound": "COc1cc(N2CCC(N3CCN(C)CC3)CC2)ccc1Nc1ncnc(Nc2ccccc2S(=O)(=O)C(C)C)n1", "values": [{"measurement": "nucleolar normality score", "setting": "1 µM", "result": "inactive: 0.928"}, {"measurement": "nucleolar normality score", "setting": "10 µM", "result": "active: 0.841"}]}, {"compound": "CCN1CCN(Cc2ccc(-c3cc4c(N[C@H](C)c5ccccc5)ncnc4[nH]3)cc2)CC1", "values": [{"measurement": "nucleolar normality score", "setting": "1 µM", "result": "inactive: 0.934"}, {"measurement": "nucleolar normality score", "setting": "10 µM", "result": "inactive: 1.11"}]}, {"compound": "Cc1nc(-c2ccc(OCC(C)C)c(C#N)c2)sc1C(=O)O", "note": "[Febuxostat]", "values": [{"measurement": "nucleolar normality score", "setting": "1 µM", "result": "inactive: 1.06"}, {"measurement": "nucleolar normality score", "setting": "10 µM", "result": "inactive: 1.13"}]}, {"compound": "C=C1/C(=C\\C=C2/CCC[C@]3(C)[C@@H]([C@H](C)/C=C/[C@H](C)C(C)C)CC[C@@H]23)C[C@@H](O)C[C@@H]1O", "note": "[Doxercalciferol]", "values": [{"measurement": "nucleolar normality score", "setting": "1 µM", "result": "inactive: 1.02"}, {"measurement": "nucleolar normality score", "setting": "10 µM", "result": "inactive: 1.06"}]}, {"compound": "Cc1ccc2c(=O)c3cccc(CC(=O)O)c3oc2c1C", "note": "[DMXAA (Vadimezan)]", "values": [{"measurement": "nucleolar normality score", "setting": "1 µM", "result": "inactive: 1.01"}, {"measurement": "nucleolar normality score", "setting": "10 µM", "result": "inactive: 1.07"}]}, {"compound": "CCOC(=O)c1[nH]c2cc(Cl)ccc2c1C(C(=O)NC(C)(C)C)N(C=O)Cc1ccc(Cl)cc1", "note": "(stereo not drawn)", "values": [{"measurement": "nucleolar normality score", "setting": "1 µM", "result": "inactive: 0.989"}, {"measurement": "nucleolar normality score", "setting": "10 µM", "result": "inactive: 1.08"}]}, {"compound": "O=C1NCCCc2c1oc1ccc(O)cc21", "values": [{"measurement": "nucleolar normality score", "setting": "1 µM", "result": "inactive: 1.03"}, {"measurement": "nucleolar normality score", "setting": "10 µM", "result": "inactive: 1.13"}]}, {"compound": "H-RRRRRRRRRRPILTRITLE-OH", "values": [{"measurement": "nucleolar normality score", "setting": "1 µM", "result": "inactive: 0.981"}, {"measurement": "nucleolar normality score", "setting": "10 µM", "result": "inactive: 1.03"}]}, {"compound": "C=CC(=O)Nc1cccc(Nc2nc(Nc3ccc(OCCOC)cc3)ncc2F)c1", "note": "[Spebrutinib (CC-292, AVL-292)]", "values": [{"measurement": "nucleolar normality score", "setting": "1 µM", "result": "inactive: 0.925"}, {"measurement": "nucleolar normality score", "setting": "10 µM", "result": "inactive: 1"}]}, {"compound": "N#Cc1c(NC(=O)c2cccc3ccccc23)sc2c1CCCC2", "note": "[JNK Inhibitor IX]", "values": [{"measurement": "nucleolar normality score", "setting": "1 µM", "result": "inactive: 1.05"}, {"measurement": "nucleolar normality score", "setting": "10 µM", "result": "inactive: 0.898"}]}, {"compound": "CCC(=O)Nc1cccc(Oc2nc(Nc3ccc(N4CCN(C)CC4)cc3OC)ncc2Cl)c1", "values": [{"measurement": "nucleolar normality score", "setting": "1 µM", "result": "inactive: 0.986"}, {"measurement": "nucleolar normality score", "setting": "10 µM", "result": "inactive: 0.952"}]}, {"compound": "CCN(CC)CCCC(C)Nc1nc(C)cc(Nc2ccc3nc(C)cc(N)c3c2)n1", "note": "(stereo not drawn)", "values": [{"measurement": "nucleolar normality score", "setting": "1 µM", "result": "inactive: 1.02"}, {"measurement": "nucleolar normality score", "setting": "10 µM", "result": "inactive: 1.05"}]}]}
